# Assay results reported in the supplement of paper PMC4604168 (melanoma cell lines).
# The other results are listed elsewhere or left out. Single values are uncertain, as repeats are few or missing.
# Columns and labels:
# Test in all cases: cell count relative to DMSO control; melanoma cells; higher = more viable cells
# Settings in all cases: library dose: standard library concentration; 72 h
# [1] = system: G361
# [2] = system: IPC-298
# [3] = system: IST-MEL1
# [4] = system: LB2518-MEL
# [5] = system: LOXIMVI
# [6] = system: MEL-HO
# [7] = system: MZ2-MEL
# [8] = system: MeWo
# [9] = system: RPMI7951
# [10] = system: RVH-421
# [11] = system: SkMel28
# [12] = system: SkMel2
# [13] = system: SkMel30
# [14] = system: SkMel5
# [15] = system: UACC257
# [16] = system: UACC62
# [17] = system: WM115
# [18] = system: WM1716
# [19] = system: WM1745
# [20] = system: WM3526
# 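Also: cells treated in 1,536-well plates, then fixed and DAPI-stained, with nuclei counted from automated high-throughput microscope images.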
SMILES,cell count [1] [%],cell count [2] [%],cell count [3] [%],cell count [4] [%],cell count [5] [%],cell count [6] [%],cell count [7] [%],cell count [8] [%],cell count [9] [%],cell count [10] [%],cell count [11] [%],cell count [12] [%],cell count [13] [%],cell count [14] [%],cell count [15] [%],cell count [16] [%],cell count [17] [%],cell count [18] [%],cell count [19] [%],cell count [20] [%]
"Nc1cccc2c1CN(C1CCC(=O)NC1=O)C2=O (stereo not given) [lenalidomide] + Cc1cc(SCc2sc(-c3ccc(C(F)(F)F)c(F)c3)nc2C)ccc1OCC(=O)O [GW0742] (first compound 5 µM, partner dose 10 µM)",106,101,88.2,102,115,105,119,101,90,76.9,89.1,91.6,101,124,88.7,120,74.6,110,87.1,90.8
"N#Cc1c(O)c2c(-c3ccc(-c4ccccc4O)cc3)csc2[nH]c1=O + O=C(Oc1ccc([N+](=O)[O-])cc1)N1CCC(C(O)(c2ccc3c(c2)OCO3)c2ccc3c(c2)OCO3)CC1 [JZL184] (first compound 10 µM, partner dose 5 µM)",107,109,106,144,87.2,105,110,92.1,112,107,138,110,79.3,82.5,108,97.9,88.6,108,108,83
"CCCCCCCCCCCCCCCCCCOP(=O)([O-])OC1CC[N+](C)(C)CC1 [Perifosine] + N.N.[Cl][Pt][Cl] [cisplatin] (first compound 2 µM, partner dose 8 µM)",73.3,98.2,90.5,78.8,67,93.3,86.5,97.4,15,83.8,80.3,92.4,86.8,91.9,81.7,101,102,97.7,101,81.3
"C[C@@H](N)c1ccc(C(=O)Nc2ccnc3[nH]ccc23)cc1 + Cn1cc(C2=C(c3cn(C4CCN(Cc5ccccn5)CC4)c4ccccc34)C(=O)NC2=O)c2ccccc21 [Enzastaurin] (first compound 2 µM, partner dose 4 µM)",51.7,83.7,69.6,66.4,77.4,84.1,56.3,80.9,33.2,24.9,42.5,61,103,62.7,74,59.1,74.7,8.55,23.7,88.5
"Cn1cncc1[C@@](N)(c1ccc(Cl)cc1)c1ccc2c(c1)c(-c1cccc(Cl)c1)cc(=O)n2C [tipifarnib] + C/C(O)=C(\C#N)C(=O)Nc1cc(Br)ccc1Br [LFM-A13] (first compound 0.05 µM, partner dose 10 µM)",81.9,83.2,80.3,74.2,73.1,80.1,75.5,102,61.3,85.1,62.4,83.4,84,68.1,96.1,69.9,69.8,72.7,101,75.8
"O=c1[nH]nc(Sc2ncc([N+](=O)[O-])s2)n1-c1ccc2c(c1)OCCO2 + N.N.[Cl][Pt][Cl] [cisplatin] (first compound 1 µM, partner dose 8 µM)",96.9,110,96.8,106,57.4,93.3,89.9,90,83.6,21.3,99.7,105,115,109,78.2,103,90.3,101,92.3,111
"CCN(CC)CCCCNc1ncc2cc(-c3cc(OC)cc(OC)c3)c(NC(=O)NC(C)(C)C)nc2n1 + C/C(O)=C(\C#N)C(=O)Nc1cc(Br)ccc1Br [LFM-A13] (first compound 0.5 µM, partner dose 10 µM)",90.8,99.6,97.5,98.2,82.6,107,94.4,83.9,84.7,106,115,106,97.2,97.5,99.5,98.5,107,82.9,77,94
"Cn1cncc1[C@@](N)(c1ccc(Cl)cc1)c1ccc2c(c1)c(-c1cccc(Cl)c1)cc(=O)n2C [tipifarnib] + Cc1cc(SCc2sc(-c3ccc(C(F)(F)F)c(F)c3)nc2C)ccc1OCC(=O)O [GW0742] (first compound 0.05 µM, partner dose 10 µM)",88.5,97.7,86.5,83.4,84.4,83.9,96.2,93,78.9,104,75.9,91.7,117,75.4,97.2,80,79.9,79.1,87.8,80.3
"C/C(O)=C(\C#N)C(=O)Nc1cc(Br)ccc1Br + CCCCCCCCCCCC1=C(O)C(=O)C=C(O)C1=O [Embelin] (first compound 10 µM, partner dose 6 µM)",83.5,71.1,73.6,80.6,87.1,83,77.7,88.4,80.8,81,71.4,96.6,86.8,99.4,76.9,80.5,77.5,88,92.1,93.8
"CCN(CC)CCCCNc1ncc2cc(-c3cc(OC)cc(OC)c3)c(NC(=O)NC(C)(C)C)nc2n1 + O=C(Oc1ccc([N+](=O)[O-])cc1)N1CCC(C(O)(c2ccc3c(c2)OCO3)c2ccc3c(c2)OCO3)CC1 [JZL184] (first compound 0.5 µM, partner dose 5 µM)",90.9,106,106,121,83,104,104,86.2,106,116,103,86.4,86.6,74.1,107,91.6,106,94.7,79.3,78.1
"CCc1ccc(CCOc2ccc(CC3SC(=O)NC3=O)cc2)nc1 (stereo not given) [pioglitazone] + C/C(O)=C(\C#N)C(=O)Nc1cc(Br)ccc1Br [LFM-A13] (first compound 10 µM, partner dose 10 µM)",101,92.6,94.5,85.3,108,97.1,85.6,81.8,91.3,108,95.5,96.3,93.6,86.5,100,108,72.7,101,61.7,90
"COc1cc(Nc2ncc(F)c(Nc3ccc4c(n3)NC(=O)C(C)(C)O4)n2)cc(OC)c1OC [Tamatinib] + C/C(O)=C(\C#N)C(=O)Nc1cc(Br)ccc1Br [LFM-A13] (first compound 2 µM, partner dose 10 µM)",76,69,60.8,56.1,20.4,62.7,60.2,81.9,16.8,86.4,52.5,79.5,90,56.7,90.3,73.4,75.5,86.3,21.6,85.7
"CN(C)S(=O)(=O)c1ccc2c(c1)/C(=C/c1cc3c([nH]1)CCCC3)C(=O)N2 + O=C(Oc1ccc([N+](=O)[O-])cc1)N1CCC(C(O)(c2ccc3c(c2)OCO3)c2ccc3c(c2)OCO3)CC1 [JZL184] (first compound 2 µM, partner dose 5 µM)",75.9,61.8,77.6,75.2,83.3,81.9,61.5,53.1,24.5,76.6,48.4,68.3,66.4,52.9,60.9,49.9,40.5,45.4,42.2,53.4
"C/C(O)=C(\C#N)C(=O)Nc1cc(Br)ccc1Br + CC(C)CCN1c2nc(Nc3cc(F)c(O)c(F)c3)ncc2N(C)C(=O)C1C [BID1870] (first compound 10 µM, partner dose 1 µM)",60.7,80.7,96.3,143,118,70.2,97.3,82,116,99.8,50.5,77.2,83.9,61.8,85.2,65,85.2,6.73,79.7,65.2
"Nc1nc(F)nc2c1ncn2[C@@H]1O[C@H](CO)[C@@H](O)[C@@H]1O [fludarabine] + C[As](C)SC[C@H](NC(=O)CC[C@H](N)C(=O)O)C(=O)NCC(=O)O [Darinaparsin] (first compound 1 µM, partner dose 2 µM)",74.8,73.4,67,83.9,53.2,80.6,98.2,80.3,62.4,67.1,2.62,1.78,14.3,24,30,52.3,67.3,63.5,101,16.9
"CCN(CC)CCCCNc1ncc2cc(-c3cc(OC)cc(OC)c3)c(NC(=O)NC(C)(C)C)nc2n1 + Cc1cc(SCc2sc(-c3ccc(C(F)(F)F)c(F)c3)nc2C)ccc1OCC(=O)O [GW0742] (first compound 0.5 µM, partner dose 10 µM)",103,101,84.3,98.5,98.1,88,94.5,109,90.1,93.2,99.4,80.1,110,90.9,110,99.3,85.5,96.3,80.7,92.8
"CN(NC(=O)CC(=O)NN(C)C(=S)c1ccccc1)C(=S)c1ccccc1 + Cc1cc(SCc2sc(-c3ccc(C(F)(F)F)c(F)c3)nc2C)ccc1OCC(=O)O [GW0742] (first compound 0.03 µM, partner dose 10 µM)",38.8,71.6,19,22.4,165,68.7,95.4,10.3,51,87.4,10.1,66.2,81.3,52,96.8,75.2,30.4,89.3,19.6,93.7
